Assay results taken from the supplement of paper PMC9174493.
This is one part of the list. Single values of this set are uncertain. Values with irradiation are relative to irradiated vehicle.

Assays:
A549-Dual [1] = test: NF-kB reporter (SEAP) activity, viability-corrected, relative to vehicle (fold change vs vehicle); higher = more activation of STING-IRF / NF-kB immune response reporter; details: 10 µM
A549-Dual [2] = test: ISRE reporter (Lucia luciferase) activity, viability-corrected, relative to vehicle (fold change vs vehicle); higher = more activation of STING-IRF / NF-kB immune response reporter; details: 10 µM
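For NF-kB reporter (SEAP) activity, viability-corrected, relative to vehicle in this document: viability correction based on the alamar blue assay, with concentrations leaving 10% survival or less dropped.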

SMILES | NF-kB reporter (A549-Dual [1]; irradiation: 8 Gy/4 fr) | NF-kB reporter (A549-Dual [1]; irradiation: none) | ISRE reporter (A549-Dual [2]; irradiation: 8 Gy/4 fr) | ISRE reporter (A549-Dual [2]; irradiation: none)
CN(C)C1C(O)=C(C(N)=O)C(=O)C2(O)C(O)=C3C(=O)c4c(O)ccc(Cl)c4C(C)(O)C3CC12.Cl (configuration not stated) [Chlortetracycline HCl] | 0.76 | 0.804 | 0.753 | 0.773
NNC(=O)c1ccncc1 [Isoniazid] | 0.64 | 0.848 | 0.695 | 0.651
O=C([O-])C(O)C(O)C(O)C(O)C(=O)[O-].O=C([O-])C(O)C(O)C(O)C(O)C(=O)[O-].O=C([O-])C(O)C(O)C(O)C(O)C(=O)[O-].[Fe+3].[Fe+3] (configuration not stated) [Iron sucrose] | 1.54 | 1.23 | 1.45 | 0.966
CC(=O)Oc1ccc(C(=C2CCCCC2)c2ccc(OC(C)=O)cc2)cc1 [Cyclofenil] | 0.767 | 0.738 | 0.781 | 0.696
C=C1/C(=C\C=C2/CCC[C@]3(C)[C@@H]([C@H](C)/C=C/[C@H](C)C(C)C)CC[C@@H]23)C[C@@H](O)C[C@@H]1O [Doxercalciferol] | 0.749 | 0.704 | 0.456 | 0.644
O=C(O)CC(O)C(=O)O (configuration not stated) [Malic acid] | 0.772 | 1.45 | 0.0857 | 0.286
CC1(C)C2CCC1(C)C(O)C2 (single isomer, unassigned; (-)) [(-)-Borneol] | 0.69 | 0.587 | 0.623 | 0.436
COc1ccc(NC(=O)c2ccc(C(=N)N(C)C)cc2)c(C(=O)Nc2ccc(Cl)cn2)c1 [Betrixaban] | 0.949 | 0.717 | 1.11 | 0.729
COC1(NC(=O)Cc2cccs2)C(=O)N2C(C(=O)[O-])=C(COC(N)=O)CSC21.[Na+] (configuration not stated) [Cefoxitin sodium] | 0.671 | 0.749 | 0.723 | 0.683
Cc1ccsc1C(=CCCN1CCCC(C(=O)O)C1)c1sccc1C (configuration not stated) [Tiagabine] | 0.773 | 1.14 | 0.794 | 1.25
C=C1C(CO)C(O)CC1n1cnc2c(=O)nc(N)[nH]c21 (configuration not stated) [Entecavir] | 0.728 | 0.865 | 0.568 | 0.603
C=CC1=C(C(=O)O)N2C(=O)C(NC(=O)/C(=N\OCC(=O)O)c3csc(N)n3)C2SC1 (configuration not stated) [Cefixime] | 0.81 | 0.902 | 0.764 | 0.757
O=C(O)c1ccccc1O [Salicylic acid] | 0.645 | 1.12 | 0.602 | 0.752
COc1ccc(CC(C)NCC(O)c2ccc(O)c(NC=O)c2)cc1.O=C(O)C(O)C(O)C(=O)O (configuration not stated) [Arformoterol Tartrate] | 0.977 | 0.714 | 1.27 | 0.712
Cl.O=C(c1ccc(OCCN2CCCCC2)cc1)c1c(-c2ccc(O)cc2)sc2cc(O)ccc12 [Raloxifene HCl] | 0.821 | 0.801 | 0.862 | 0.885
O=C(N/N=C/c1ccc([N+](=O)[O-])o1)c1ccc(O)cc1 [Nifuroxazide] | 1.01 | 1.24 | 0.556 | 1.49
C[N+]1(C)C2CC(OC(=O)C(O)(c3cccs3)c3cccs3)CC1C1OC12.O.[Br-] (configuration not stated) [Tiotropium Bromide hydrate] | 0.792 | 1.12 | 0.928 | 1.26
C[N+](C)(C)CCO.O=C([O-])C(O)C(O)C(=O)O (configuration not stated) [Choline bitartrate] | 1.03 | 0.644 | 1.12 | 0.659
O=C1OC(C(O)CO)C(O)=C1O (configuration not stated) [Vitamin C] | 0.53 | 0.658 | 0.762 | 0.618
CN1c2ccccc2C(=O)N2CCc3c([nH]c4ccccc34)C21 (configuration not stated) [Evodiamine] | 0.849 | 1.26 | 0.21 | 0.601
O=C(Nc1ccc(Cl)cc1)Nc1ccc(Cl)c(Cl)c1 [Triclocarban] | 0.877 | 0.825 | 0.386 | 0.39
CC1=C(/C=C/C(C)=C/C=C/C(C)=C\C(=O)O)C(C)(C)CCC1 [Isotretinoin] | 0.83 | 0.841 | 0.7 | 0.775
NC(CC(=O)N1CCn2c(nnc2C(F)(F)F)C1)Cc1cc(F)c(F)cc1F (configuration not stated) [Sitagliptin] | 0.619 | 0.91 | 0.613 | 0.633
OCC(O)C(O)CO (configuration not stated) [Erythritol] | 0.501 | 0.576 | 0.583 | 0.528
CC(C)Nc1cccnc1N1CCN(C(=O)c2cc3cc(NS(C)(=O)=O)ccc3[nH]2)CC1.CS(=O)(=O)O [Delavirdine (mesylate)] | 0.74 | 0.731 | 0.874 | 0.936
Cl.O=C1c2cccc3c2C(CCC3)CN1C1CN2CCC1CC2 (configuration not stated) [Palonosetron HCl] | 0.462 | 0.713 | 0.487 | 0.86
CC(=O)OC1(C(C)=O)CCC2C3CC(C)C4=CC(=O)CCC4(C)C3CCC21C (configuration not stated) [Medroxyprogesterone acetate] | 0.776 | 1.04 | 0.188 | 0.292

SMILES | NF-kB reporter (A549-Dual [1]; irradiation: 8 Gy/4 fr) | NF-kB reporter (A549-Dual [1]; irradiation: none) | ISRE reporter (A549-Dual [2]; irradiation: 8 Gy/4 fr) | ISRE reporter (A549-Dual [2]; irradiation: none)
Clc1ccc(C(Cn2ccnc2)OCc2c(Cl)cccc2Cl)c(Cl)c1.O=[N+]([O-])O (configuration not stated) [Isoconazole nitrate] | 0.463 | 0.493 | 0.438 | 0.397
Clc1ccc(C(Cn2ccnc2)OCc2csc3c(Cl)cccc23)c(Cl)c1.O=[N+]([O-])O (configuration not stated) [Sertaconazole nitrate] | 0.471 | 0.715 | 0.418 | 0.59
COC1=CC(=O)CC(C)C12Oc1c(Cl)c(OC)cc(OC)c1C2=O (configuration not stated) [Griseofulvin] | 0.715 | 0.859 | 1.16 | 2.6
Cc1ncc([N+](=O)[O-])n1CC(C)O (configuration not stated) [Secnidazole] | 0.78 | 1.1 | 0.77 | 0.941
CN1CCN(c2c(F)cc3c(=O)c(C(=O)O)cn4c3c2OCN4C)CC1 [Marbofloxacin] | 0.734 | 0.927 | 0.81 | 0.961
CS(=O)(=O)O.Oc1ccc(C2CNCCc3c2cc(O)c(O)c3Cl)cc1 (configuration not stated) [Fenoldopam mesylate] | 0.916 | 0.613 | 0.722 | 0.471
COc1cc(O)c(C(=O)Nc2nc(C(=O)NCCN(C(C)C)C(C)C)cs2)cc1OC.Cl.O.O.O [Acotiamide hydrochloride] | 1.06 | 1.23 | 1.06 | 0.805
CC(=O)[N]([Na])S(=O)(=O)c1ccc(N)cc1.O [Sulfacetamide sodium salt hydrate] | 0.911 | 1.05 | 0.846 | 0.78
O=C(O)CCC(=O)O [Succinic acid] | 0.617 | 0.813 | 0.774 | 0.678
OCC1OC(Oc2ccc(O)cc2)C(O)C(O)C1O (stereo not drawn) [alpha-Arbutin] | 0.769 | 0.769 | 0.711 | 0.523
Nc1ccc(S(=O)(=O)c2ccc(N)cc2)cc1 [Dapson] | 0.758 | 0.991 | 0.771 | 0.905
C1N2CN3CN1CN(C2)C3.O=C(O)CNC(=O)c1ccccc1 [Methenamine Hippurate] | 1.01 | 0.897 | 0.889 | 0.668
CC(=O)NS(=O)(=O)c1ccc(NC(=O)c2ccccc2C(=O)O)cc1 [Phthalylsulfacetamide] | 0.904 | 0.785 | 0.831 | 0.591
CNC1C(OC2C(OC3C(O)C(O)C(NC(=N)N)C(O)C3NC(=N)N)OC(C)C2(O)CO)OC(CO)C(O)C1O.CNC1C(OC2C(OC3C(O)C(O)C(NC(=N)N)C(O)C3NC(=N)N)OC(C)C2(O)CO)OC(CO)C(O)C1O.O=S(=O)(O)O.O=S(=O)(O)O.O=S(=O)(O)O (configuration not stated) [Dihydrostreptomycin sulfate] | 0.797 | 0.84 | 0.907 | 1.02
CC(C)(C)NCC(O)COc1cccc2c1CCC(=O)N2.Cl (configuration not stated) [Carteolol HCl] | 1.69 | 1.25 | 1.42 | 0.761
CCOc1ccc(CC2NC(=O)CCSSCC(C(=O)N3CCCC3C(=O)NC(CCCN)C(=O)NCC(N)=O)NC(=O)C(CC(N)=O)NC(=O)C(C(C)O)NC(=O)C(C(C)CC)NC2=O)cc1 (configuration not stated) [Atosiban Acetate] | 0.825 | 0.724 | 0.83 | 0.711
C=CC1(C)CC(OC(=O)CSCCN(CC)CC)C2(C)C(C)CCC3(CCC(=O)C32)C(C)C1O.O=C(O)/C=C/C(=O)O (configuration not stated) [Tiamulin fumarate] | 0.676 | 1.1 | 0.635 | 0.846
CCCCCCCCCCCCCC(=O)O [Myristic Acid] | 1.01 | 0.839 | 0.987 | 0.72
Cc1c(C(N)=O)cc([N+](=O)[O-])cc1[N+](=O)[O-] [Dinitolmide] | 0.888 | 1.16 | 0.93 | 0.952
OCC1OC(OC2C(CO)OC(OC3C(CO)OC(O)C(O)C3O)C(O)C2O)C(O)C(O)C1O (configuration not stated) [Maltotriose] | 0.772 | 0.606 | 0.715 | 0.441
COC(=O)CCC(=O)CN.Cl [Methyl Aminolevulinate Hydrochloride] | 0.781 | 0.838 | 0.74 | 0.493
CC(C)NCC(O)COc1ccc(COCCOC(C)C)cc1.O=C(O)/C=C/C(=O)O (configuration not stated) [Bisoprolol fumarate] | 0.703 | 0.944 | 0.787 | 0.659
CC1OC(Oc2c(-c3ccc(O)c(O)c3)oc3cc(O)cc(O)c3c2=O)C(O)C(O)C1O (configuration not stated) [Quercitrin] | 0.775 | 0.598 | 0.709 | 0.661
O=c1c(O)c(-c2ccc(O)cc2)oc2cc(O)cc(O)c12 [Kaempferol] | 0.639 | 0.483 | 0.455 | 0.642
Cc1c(C(=O)NN2CCCCC2)nn(-c2ccc(Cl)cc2Cl)c1-c1ccc(Cl)cc1 [Rimonabant] | 0.591 | 0.652 | 0.52 | 0.642
COC(=O)C1=C(C)NC(C)=C(C(=O)OC2CCCN(Cc3ccccc3)C2)C1c1cccc([N+](=O)[O-])c1.Cl (configuration not stated) [Benidipine HCl] | 0.648 | 0.776 | 0.714 | 0.882
